These results are taken from paper PMC12820563, “FoxP3 forms a head-to-head dimer in vivo and stabilizes its multimerization on adjacent microsatellites”.

Some of the results follow.

The target in the assay is T1, MBP-FoxP1dN (Mus musculus, UniProt P58462 326-579).
T1 sequence: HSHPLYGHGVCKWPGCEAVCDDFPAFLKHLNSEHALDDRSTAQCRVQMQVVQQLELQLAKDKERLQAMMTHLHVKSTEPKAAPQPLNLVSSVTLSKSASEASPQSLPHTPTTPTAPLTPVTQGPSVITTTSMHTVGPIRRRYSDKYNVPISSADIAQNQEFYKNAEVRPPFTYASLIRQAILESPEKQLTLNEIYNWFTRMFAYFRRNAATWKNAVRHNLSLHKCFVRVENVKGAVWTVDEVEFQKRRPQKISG
Briefly: PD-seq (MBP pull-down with sequencing); 20 mM Tris-HCl pH 7.5, 100 mM NaCl, 1.5 mM MgCl2, 0.4 uM protein, 0.1 uM dsDNA library, 30 min, room temperature, amylose pull-down; high values mean tight binding. The conditions noted are these: protein: recombinant; tags: His6-MBP; chain copies: 2; dsDNA, one strand shown. Summed up: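 In Tris pH 7.5 buffer with NaCl and MgCl2, 0.4 µM His6-MBP-tagged mouse FoxP3 or FoxP1 fragment lacking the N-terminus, from E. coli, met 0.1 µM Klenow-filled double-stranded degenerate DNA library for 30 min at room temperature. Three washes on amylose resin followed capture of the complexes, then proteinase K release of DNA, PCR barcoding and Illumina sequencing. Binding is taken as pooled-replicate reads-per-million enrichment of pull-down relative to input.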
Regarding “GATGATTGTTCTCCCAGCTGATGAATTGGCCAGTTCGAGTAAACAAATTTTCCTAATCTTTCTGTTCAAGCGCCATCTAC”, the binding signal is 0.793 RPM ratio (pull-down/input).

“GATGATTGTTCTCCCAGCTGATGAATTCTGAGCCTCGAGTAAACAAATTTTCCTAATCTTTCTGTTCAAGCGCCATCTAC”: the binding signal was 0.85 RPM ratio (pull-down/input). With “GATGATTGTTCTCCCAGCTGATGAATTAGGGGGATCGAGTAAACAAATTTTCCTAATCTTTCTGTTCAAGCGCCATCTAC”, the binding signal was 0.885 RPM ratio (pull-down/input). As for “GATGATTGTTCTCCCAGCTGATGAATTGCGGCCCTCGAGTAAACAAATTTTCCTAATCTTTCTGTTCAAGCGCCATCTAC”, the binding signal was 0.949 RPM ratio (pull-down/input). Turning to “GATGATTGTTCTCCCAGCTGATGAATTGTTTTTTTCGAGTAAACAAATTTTCCTAATCTTTCTGTTCAAGCGCCATCTAC”, the binding signal is 2.25 RPM ratio (pull-down/input).

In the case of “GATGATTGTTCTCCCAGCTGATGAATTAAGGCTGTCGAGTAAACAAATTTTCCTAATCTTTCTGTTCAAGCGCCATCTAC”, the binding signal is 0.84 RPM ratio (pull-down/input). As for “GATGATTGTTCTCCCAGCTGATGAATTGCATGCTTCGAGTAAACAAATTTTCCTAATCTTTCTGTTCAAGCGCCATCTAC”, the binding signal is 1.18 RPM ratio (pull-down/input). As to “GATGATTGTTCTCCCAGCTGATGAATTAGTGCAGTCGAGTAAACAAATTTTCCTAATCTTTCTGTTCAAGCGCCATCTAC”, the binding signal was 0.937 RPM ratio (pull-down/input). As to “GATGATTGTTCTCCCAGCTGATGAATTTAGACAGTCGAGTAAACAAATTTTCCTAATCTTTCTGTTCAAGCGCCATCTAC”, the binding signal was 1.02 RPM ratio (pull-down/input).

With “GATGATTGTTCTCCCAGCTGATGAATTCATTTCATCGAGTAAACAAATTTTCCTAATCTTTCTGTTCAAGCGCCATCTAC”, the binding signal was 0.9 RPM ratio (pull-down/input). “GATGATTGTTCTCCCAGCTGATGAATTGACACCGTCGAGTAAACAAATTTTCCTAATCTTTCTGTTCAAGCGCCATCTAC”: the binding signal was 1.14 RPM ratio (pull-down/input). To “GATGATTGTTCTCCCAGCTGATGAATTCTGTGGATCGAGTAAACAAATTTTCCTAATCTTTCTGTTCAAGCGCCATCTAC” belongs 0.956 RPM ratio (pull-down/input); to “GATGATTGTTCTCCCAGCTGATGAATTGTCGCTGTCGAGTAAACAAATTTTCCTAATCTTTCTGTTCAAGCGCCATCTAC”, 1.02 RPM ratio (pull-down/input).

In the case of “GATGATTGTTCTCCCAGCTGATGAATTCTCCGCATCGAGTAAACAAATTTTCCTAATCTTTCTGTTCAAGCGCCATCTAC”, the binding signal was 1.08 RPM ratio (pull-down/input).

In the case of “GATGATTGTTCTCCCAGCTGATGAATTGGGGTACTCGAGTAAACAAATTTTCCTAATCTTTCTGTTCAAGCGCCATCTAC”, the binding signal is 0.818 RPM ratio (pull-down/input). Turning to “GATGATTGTTCTCCCAGCTGATGAATTTAGGCAGTCGAGTAAACAAATTTTCCTAATCTTTCTGTTCAAGCGCCATCTAC”, the binding signal is 0.877 RPM ratio (pull-down/input). “GATGATTGTTCTCCCAGCTGATGAATTCCAGCTGTCGAGTAAACAAATTTTCCTAATCTTTCTGTTCAAGCGCCATCTAC”: the binding signal was 0.787 RPM ratio (pull-down/input). In the case of “GATGATTGTTCTCCCAGCTGATGAATTTGCCTGCTCGAGTAAACAAATTTTCCTAATCTTTCTGTTCAAGCGCCATCTAC”, the binding signal was 0.858 RPM ratio (pull-down/input). To “GATGATTGTTCTCCCAGCTGATGAATTCAATAGCTCGAGTAAACAAATTTTCCTAATCTTTCTGTTCAAGCGCCATCTAC” belongs 0.896 RPM ratio (pull-down/input); to “GATGATTGTTCTCCCAGCTGATGAATTAGTAGGTTCGAGTAAACAAATTTTCCTAATCTTTCTGTTCAAGCGCCATCTAC”, 0.902 RPM ratio (pull-down/input); to “GATGATTGTTCTCCCAGCTGATGAATTTGTTTTGTCGAGTAAACAAATTTTCCTAATCTTTCTGTTCAAGCGCCATCTAC”, 2.33 RPM ratio (pull-down/input). To “GATGATTGTTCTCCCAGCTGATGAATTTTGGTAGTCGAGTAAACAAATTTTCCTAATCTTTCTGTTCAAGCGCCATCTAC” belongs 0.905 RPM ratio (pull-down/input); to “GATGATTGTTCTCCCAGCTGATGAATTCATCGTATCGAGTAAACAAATTTTCCTAATCTTTCTGTTCAAGCGCCATCTAC”, 0.924 RPM ratio (pull-down/input). To “GATGATTGTTCTCCCAGCTGATGAATTTGAGCCCTCGAGTAAACAAATTTTCCTAATCTTTCTGTTCAAGCGCCATCTAC” belongs 0.779 RPM ratio (pull-down/input); to “GATGATTGTTCTCCCAGCTGATGAATTACCCGTTTCGAGTAAACAAATTTTCCTAATCTTTCTGTTCAAGCGCCATCTAC”, 1.03 RPM ratio (pull-down/input); to “GATGATTGTTCTCCCAGCTGATGAATTAGTTGCGTCGAGTAAACAAATTTTCCTAATCTTTCTGTTCAAGCGCCATCTAC”, 1.28 RPM ratio (pull-down/input). Consider “GATGATTGTTCTCCCAGCTGATGAATTTTTCAACTCGAGTAAACAAATTTTCCTAATCTTTCTGTTCAAGCGCCATCTAC”, for which the binding signal is 0.927 RPM ratio (pull-down/input).

“GATGATTGTTCTCCCAGCTGATGAATTCCCCCATTCGAGTAAACAAATTTTCCTAATCTTTCTGTTCAAGCGCCATCTAC”: the binding signal was 0.876 RPM ratio (pull-down/input). As to “GATGATTGTTCTCCCAGCTGATGAATTGCGACTATCGAGTAAACAAATTTTCCTAATCTTTCTGTTCAAGCGCCATCTAC”, the binding signal was 1.19 RPM ratio (pull-down/input). Turning to “GATGATTGTTCTCCCAGCTGATGAATTTCTGGGGTCGAGTAAACAAATTTTCCTAATCTTTCTGTTCAAGCGCCATCTAC”, the binding signal was 0.783 RPM ratio (pull-down/input). To “GATGATTGTTCTCCCAGCTGATGAATTAGTCCTTTCGAGTAAACAAATTTTCCTAATCTTTCTGTTCAAGCGCCATCTAC” belongs 0.908 RPM ratio (pull-down/input); to “GATGATTGTTCTCCCAGCTGATGAATTTGCGCGGTCGAGTAAACAAATTTTCCTAATCTTTCTGTTCAAGCGCCATCTAC”, 0.902 RPM ratio (pull-down/input).

For “GATGATTGTTCTCCCAGCTGATGAATTATCCTTTTCGAGTAAACAAATTTTCCTAATCTTTCTGTTCAAGCGCCATCTAC”, the binding signal was 0.902 RPM ratio (pull-down/input).

As for “GATGATTGTTCTCCCAGCTGATGAATTGCAGCTCTCGAGTAAACAAATTTTCCTAATCTTTCTGTTCAAGCGCCATCTAC”, the binding signal is 1.08 RPM ratio (pull-down/input). As to “GATGATTGTTCTCCCAGCTGATGAATTCTGGCTGTCGAGTAAACAAATTTTCCTAATCTTTCTGTTCAAGCGCCATCTAC”, the binding signal is 0.808 RPM ratio (pull-down/input).

For “GATGATTGTTCTCCCAGCTGATGAATTGCTGGTTTCGAGTAAACAAATTTTCCTAATCTTTCTGTTCAAGCGCCATCTAC”, the binding signal was 1.04 RPM ratio (pull-down/input). As to “GATGATTGTTCTCCCAGCTGATGAATTAGGTATCTCGAGTAAACAAATTTTCCTAATCTTTCTGTTCAAGCGCCATCTAC”, the binding signal was 0.964 RPM ratio (pull-down/input). As for “GATGATTGTTCTCCCAGCTGATGAATTGAGAGTCTCGAGTAAACAAATTTTCCTAATCTTTCTGTTCAAGCGCCATCTAC”, the binding signal was 0.741 RPM ratio (pull-down/input). For “GATGATTGTTCTCCCAGCTGATGAATTTCAGGAGTCGAGTAAACAAATTTTCCTAATCTTTCTGTTCAAGCGCCATCTAC”, the binding signal is 0.764 RPM ratio (pull-down/input). For the sequence “GATGATTGTTCTCCCAGCTGATGAATTAGGGGAATCGAGTAAACAAATTTTCCTAATCTTTCTGTTCAAGCGCCATCTAC”, the binding signal is 0.899 RPM ratio (pull-down/input).
